Measured values taken from PubChem BioAssay (Tox21).
“And” between values parts separate entries of the source, which are not always exact repeats. Equal values may be shown once. The shares of active, inactive and inconclusive entries below differ from those in the screen. For part of these data: Potencies beside an inconclusive call are fits to weak or partial responses and may not hold up. The source made the active and inactive calls. Unless noted, calls follow the shape of the dose curve; as a rule, active = well fitted curve in the direction sought with a large enough effect in the repeat runs; inconclusive = weak or mixed curves; inactive = no such curve, though single readings can be large; an effect the other way counts as inactive or inconclusive.

Columns and labels:
[1] = qHTS assay to identify small molecule antagonists of the TGF-beta/Smad signaling pathway (AID 1346924; active = well fitted inhibition curve with a large enough effect in the signal ratio in the repeat runs, not every such curve was filed as active; inconclusive = weak or mixed curves; the % refers to the signal ratio; also: potency is read from the fitted curve at half-maximal effect); details: SBE-bla HEK293T, TGF-beta/Smad reporter, beta-lactamase ratio; activity, negative = inhibition: at 76.8 µM (top of the series) unless noted
Method in brief: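 SBE-bla HEK 293T cells were plated overnight, then received compound in DMSO plus TGF-beta1 (added as a 0.25 ng/mL solution) and were incubated 5 h at 37 C. Beta-lactamase reporter activity was read after 2 h at room temperature with LiveBLAzer B/G FRET substrate (ex 405, em 460/530 nm).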

[2] = molecular target: Cytochrome P450 2C19 (Homo sapiens) (UniProt P33261); test: Cytochrome P450 Family 2 Subfamily C Member 19 (CYP2C19) small molecule antagonists: luciferase reporter qHTS assay (AID 1671197); also: potency is read from the fitted curve at half-maximal effect; nearly all actives have a fitted effect of over 65% in size
Method in brief: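 CYP2C19 P450-Glo, 1536-well qHTS. Cpd + enzyme/proluciferin substrate 10 min RT; + NADPH regen, 37C 1 h; stop with luciferin detection reagent, 20 min RT, luminescence (RLU). Pos ctrl ketoconazole.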

[3] = molecular target: Cytochrome P450 1A2 (Homo sapiens) (UniProt P05177); test: Cytochrome P450 Family 1 Subfamily A Member 2 (CYP1A2) small molecule antagonists: luciferase reporter qHTS assay (AID 1671199); also: nearly all actives have a fitted effect of over 50% in size; also: potency is read from the fitted curve at half-maximal effect
Method in brief: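 Signal from luciferin formed by CYP1A2 from a proluciferin substrate is read as luminescence, expressed in relative luminescence units. Compounds sit with enzyme 10 min, NADPH-driven reaction runs 1 h, all at room temperature.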

[4] = molecular target: Voltage-gated inwardly rectifying potassium channel KCNH2 (Homo sapiens) (UniProt Q12809); test: Human Ether-a-go-go-Related Gene (hERG) channel small molecule antagonists: fluorescence cell-based qHTS assay (AID 1671200);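 also: hERG-expressing U2OS cells given a thallium stimulus after FluxOR II dye loading; % is scaled to controls: 0 for no effect and ±100 for the full control effect; nearly all actives have a fitted effect of over 50% in size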
Method in brief: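 Thallium served as the potassium surrogate; its influx into dye-loaded U2OS cells carrying the channel was measured by fluorescence over 2 min.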

[5] = Human pregnane X receptor (PXR) small molecule agonists, qHTS cell viability counter screen (AID 1346977); also: nearly all actives have a fitted effect of over 50% in size; also: potency is read from the fitted curve at half-maximal effect
Method in brief: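 Viability counter screen: CellTiter-Fluor signal in PXR-Luc HepG2 cells, 24hr compound exposure, 37C, 5% CO2.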

[6] = molecular target: Cytochrome P450 2C9 (Homo sapiens) (UniProt P11712); test: Cytochrome P450 Family 2 Subfamily C Member 9 (CYP2C9) small molecule antagonists: luciferase reporter qHTS assay (AID 1671198); also: nearly all actives have a fitted effect of over 50% in size; also: potency is read from the fitted curve at half-maximal effect
Method in brief: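 CYP2C9 activity was measured with a P450-Glo proluciferin substrate. Enzyme–substrate mix was held with compound for 10 min at room temperature, then NADPH regeneration solution was added for 1 h at 37C. Luciferin product was read as luminescence.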

[7] = molecular target: Cytochrome P450 3A4 (Homo sapiens) (UniProt P08684); test: Cytochrome P450 Family 3 Subfamily A Member 4 (CYP3A4) small molecule antagonists: luciferase reporter qHTS assay (AID 1671201); also: nearly all actives have a fitted effect of over 50% in size; also: potency is read from the fitted curve at half-maximal effect
Method in brief: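 Relative luminescence units after 20 min with luciferin detection reagent served as read-out. Beforehand, CYP3A4 turned over a proluciferin substrate for 1 h at room temperature with NADPH regeneration, following 10 min compound preincubation.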
Tags tell the direction and shape of the fitted curve or compound fluorescence and quenching.

UniProt P11712, sequence (P11712 whole entry, looked up): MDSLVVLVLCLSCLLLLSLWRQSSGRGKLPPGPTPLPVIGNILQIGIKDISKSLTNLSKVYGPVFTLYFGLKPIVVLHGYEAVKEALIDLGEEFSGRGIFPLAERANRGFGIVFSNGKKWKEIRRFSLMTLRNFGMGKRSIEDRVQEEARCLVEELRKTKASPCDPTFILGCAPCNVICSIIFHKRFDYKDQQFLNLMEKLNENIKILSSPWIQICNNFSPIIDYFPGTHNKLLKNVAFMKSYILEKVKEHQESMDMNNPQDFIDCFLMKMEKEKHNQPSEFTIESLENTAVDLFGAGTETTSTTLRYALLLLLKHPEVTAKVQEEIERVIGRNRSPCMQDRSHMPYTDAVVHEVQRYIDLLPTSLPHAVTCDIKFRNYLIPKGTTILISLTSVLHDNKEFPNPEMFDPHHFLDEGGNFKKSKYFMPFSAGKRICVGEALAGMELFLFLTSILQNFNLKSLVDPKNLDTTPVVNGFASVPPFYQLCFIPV
UniProt P05177, sequence (P05177 whole entry, looked up): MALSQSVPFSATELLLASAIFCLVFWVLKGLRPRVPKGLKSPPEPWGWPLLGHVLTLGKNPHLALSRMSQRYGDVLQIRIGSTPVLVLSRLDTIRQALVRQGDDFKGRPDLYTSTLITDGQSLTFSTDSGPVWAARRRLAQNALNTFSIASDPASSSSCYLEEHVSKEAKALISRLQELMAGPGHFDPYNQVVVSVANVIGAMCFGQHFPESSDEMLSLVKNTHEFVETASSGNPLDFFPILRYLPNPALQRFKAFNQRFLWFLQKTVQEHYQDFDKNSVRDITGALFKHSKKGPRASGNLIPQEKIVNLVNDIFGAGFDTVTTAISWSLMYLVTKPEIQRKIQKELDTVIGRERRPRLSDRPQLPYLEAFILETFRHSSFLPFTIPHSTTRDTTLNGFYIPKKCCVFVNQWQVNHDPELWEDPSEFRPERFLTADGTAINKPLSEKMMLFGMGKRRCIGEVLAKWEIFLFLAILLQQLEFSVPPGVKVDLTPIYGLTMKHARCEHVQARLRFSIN
UniProt P08684, sequence (P08684 whole entry, looked up): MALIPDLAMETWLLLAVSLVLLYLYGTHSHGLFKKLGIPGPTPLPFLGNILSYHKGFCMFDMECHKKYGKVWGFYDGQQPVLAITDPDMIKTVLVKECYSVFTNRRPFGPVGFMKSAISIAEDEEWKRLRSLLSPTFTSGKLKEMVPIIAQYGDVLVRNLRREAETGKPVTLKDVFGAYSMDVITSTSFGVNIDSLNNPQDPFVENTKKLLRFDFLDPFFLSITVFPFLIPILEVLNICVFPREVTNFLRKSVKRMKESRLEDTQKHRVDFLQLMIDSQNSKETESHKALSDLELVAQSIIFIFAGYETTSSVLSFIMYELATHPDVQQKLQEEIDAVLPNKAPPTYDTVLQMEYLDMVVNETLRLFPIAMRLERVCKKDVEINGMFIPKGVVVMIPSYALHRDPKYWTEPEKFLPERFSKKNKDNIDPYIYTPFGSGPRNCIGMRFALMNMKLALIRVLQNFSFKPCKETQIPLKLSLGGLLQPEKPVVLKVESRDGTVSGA
UniProt P33261, sequence (P33261 whole entry, looked up): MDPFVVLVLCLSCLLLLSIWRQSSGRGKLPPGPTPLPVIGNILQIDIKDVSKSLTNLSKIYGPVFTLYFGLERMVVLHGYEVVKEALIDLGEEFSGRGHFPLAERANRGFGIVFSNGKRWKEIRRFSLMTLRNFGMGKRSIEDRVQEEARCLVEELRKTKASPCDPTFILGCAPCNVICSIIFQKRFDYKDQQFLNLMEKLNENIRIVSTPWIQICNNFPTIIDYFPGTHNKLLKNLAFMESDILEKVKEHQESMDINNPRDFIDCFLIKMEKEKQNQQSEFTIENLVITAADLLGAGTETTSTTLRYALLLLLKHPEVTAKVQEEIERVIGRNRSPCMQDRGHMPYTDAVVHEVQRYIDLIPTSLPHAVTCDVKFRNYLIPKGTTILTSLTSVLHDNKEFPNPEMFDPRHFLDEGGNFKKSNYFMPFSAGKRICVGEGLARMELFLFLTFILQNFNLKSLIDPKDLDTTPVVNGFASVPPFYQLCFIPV
UniProt Q12809, sequence (Q12809 whole entry, looked up): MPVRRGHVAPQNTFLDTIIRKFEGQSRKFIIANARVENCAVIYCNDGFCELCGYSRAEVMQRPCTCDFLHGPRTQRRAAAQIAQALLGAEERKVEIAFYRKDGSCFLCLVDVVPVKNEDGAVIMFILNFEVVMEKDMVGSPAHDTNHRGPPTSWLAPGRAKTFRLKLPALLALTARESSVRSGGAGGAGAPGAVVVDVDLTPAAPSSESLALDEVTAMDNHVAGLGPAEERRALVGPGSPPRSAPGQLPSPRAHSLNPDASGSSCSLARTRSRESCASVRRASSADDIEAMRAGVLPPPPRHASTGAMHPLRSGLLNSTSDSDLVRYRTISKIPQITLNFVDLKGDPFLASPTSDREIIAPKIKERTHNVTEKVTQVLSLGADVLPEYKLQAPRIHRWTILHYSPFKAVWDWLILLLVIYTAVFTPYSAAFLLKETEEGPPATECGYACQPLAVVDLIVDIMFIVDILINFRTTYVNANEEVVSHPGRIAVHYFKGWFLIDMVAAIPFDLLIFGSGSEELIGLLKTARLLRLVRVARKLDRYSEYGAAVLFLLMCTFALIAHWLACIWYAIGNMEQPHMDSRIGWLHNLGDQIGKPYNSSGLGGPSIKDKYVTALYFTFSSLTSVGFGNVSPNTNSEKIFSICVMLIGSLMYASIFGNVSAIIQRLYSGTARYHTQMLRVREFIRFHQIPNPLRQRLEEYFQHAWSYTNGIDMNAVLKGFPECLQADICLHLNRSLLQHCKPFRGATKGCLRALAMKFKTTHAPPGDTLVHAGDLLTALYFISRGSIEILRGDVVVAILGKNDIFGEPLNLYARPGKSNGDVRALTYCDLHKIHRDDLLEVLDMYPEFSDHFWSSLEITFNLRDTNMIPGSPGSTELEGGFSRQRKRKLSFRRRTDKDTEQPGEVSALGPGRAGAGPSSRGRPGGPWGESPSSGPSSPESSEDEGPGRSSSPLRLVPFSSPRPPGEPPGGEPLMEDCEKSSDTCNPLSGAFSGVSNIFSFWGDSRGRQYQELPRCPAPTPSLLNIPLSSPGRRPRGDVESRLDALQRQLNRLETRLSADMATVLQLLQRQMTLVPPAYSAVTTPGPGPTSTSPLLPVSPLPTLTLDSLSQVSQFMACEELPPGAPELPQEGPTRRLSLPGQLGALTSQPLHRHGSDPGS

For `COC(=O)c1ccc(NC(C)=O)cc1OC`, the activity, negative = inhibition [1] was inconclusive: 10.9% [at 35.3 µM], the Potency [2] was inconclusive: 43.6 µM [inhibitor, single point] and the Potency [3] was active: 11.5 µM. For the same compound, the Potency [4] was “inactive”.

For `C/C=C1/CC2C=CC1C2` (configuration not stated), the activity, negative = inhibition [1] was inconclusive: -5.32%, the Potency [2] was inconclusive: 89.4 µM [inhibitor, single point] and the Potency [3] was “inactive”.

For `C1=C\CC/C=C\CC/1`, the activity, negative = inhibition [1] was inconclusive: -11.9% and the Potency [3] was “inactive”.

With `OCCOc1cccc(OCCO)c1` the activity, negative = inhibition [1] was inconclusive: -4.65% and the Potency [3] was inconclusive: 71 µM [inhibitor, partial curve].

For `CCCCC(=O)OCC(=O)[C@H]1[C@H](C)C[C@H]2[C@@H]3C[C@H](F)C4=CC(=O)C=C[C@]4(C)[C@@]3(F)[C@@H](O)C[C@@]21C`, the Potency [5] was “inactive”.

In the case of `CC(C)(N)CO`, the activity, negative = inhibition [1] is reported as inconclusive: -0.341%, the Potency [6] is reported as “inactive” and the Potency [3] is reported as “inactive”.

With `Nc1cc(S(=O)(=O)O)ccc1S(=O)(=O)O` the Potency [5] was “inactive”.

For `O=C(OCCCCCOC(=O)c1ccccc1)c1ccccc1`, the Potency [5] was “inactive”.

With `O=C(O)c1ccco1` the activity, negative = inhibition [1] was inconclusive: -0.461%, the Potency [6] was “inactive” and the Potency [3] was inconclusive: 39.9 µM [inhibitor, partial curve]. The Potency [7] was “inactive”.

With `COc1c2ccoc2cc2oc(=O)ccc12` the Potency [5] was “inactive”.

In the case of `O=C(c1ccccc1)c1ccc2n1CCC2C(=O)O` (configuration not stated), the activity, negative = inhibition [1] is reported as inconclusive: 6.6% [at 35.3 µM], the Potency [6] is reported as inconclusive: 27.5 µM [inhibitor, partial curve] and the Potency [3] is reported as inconclusive: 34.7 µM [inhibitor, partial curve].

In the case of `CC[C@H]1CC[C@H](NCc2cc3c(cc2OC)[C@H]2C[C@H]2C(=O)N3C)[C@H](c2ccccc2)N1`, the activity, negative = inhibition [1] is reported as inconclusive: 3.55%, the Potency [6] is reported as inconclusive: 79.6 µM [inhibitor, partial curve] and the Potency [3] is reported as inconclusive: 44.8 µM [inhibitor, partial curve]. The Potency [7] was inconclusive: 17.8 µM [inhibitor, partial curve].

With `COc1cc([N+](=O)[O-])ccc1N` the activity, negative = inhibition [1] was inconclusive: -0.446% and the Potency [7] was inconclusive: 71 µM [inhibitor, partial curve, poor fit].

In the case of `CCN(CC)c1ccc(C(=O)c2ccccc2C(=O)O)c(O)c1`, the Potency [1] is reported as inconclusive: 6.19 µM [fluorescent, full curve, poor fit] and inconclusive: 8.71 µM [fluorescent, full curve] and the Potency [3] is reported as inconclusive: 63.3 µM [inhibitor, partial curve].

In the case of `O=C(Cl)c1cc(Cl)cc(Cl)c1`, the Potency [1] is reported as inconclusive: 49.8 µM [rising, partial curve, poor fit], the Potency [6] is reported as “inactive” and the Potency [3] is reported as “inactive”.

With `CC(C)CCC(=O)CCC(C)C` the Potency [5] was “inactive”.

With `C1N2CN3CN1CN(C2)C3` the activity, negative = inhibition [1] was inconclusive: 2.6% [at 35.3 µM] and the Potency [6] was inconclusive: 88.8 µM [inhibitor, partial curve, poor fit] and inactive.

In the case of `O=c1[nH]nnc2ccccc12`, the activity, negative = inhibition [1] is reported as inconclusive: -2.85% and the Potency [3] is reported as inconclusive: 71 µM [inhibitor].

In the case of `COC(=O)N[C@H](C(=O)N[C@@H](Cc1ccccc1)[C@@H](O)CN(Cc1ccc(-c2ccccn2)cc1)NC(=O)[C@@H](NC(=O)OC)C(C)(C)C)C(C)(C)C`, the Potency [5] is reported as “inactive”.

In the case of `Nc1c(CC(=O)O)cccc1C(=O)c1ccc(Br)cc1`, the Potency [1] is reported as inconclusive: 26.8 µM [fluorescent, single point] and the Potency [6] is reported as “inactive”.

In the case of `Brc1c(NC2=NCCN2)ccc2nccnc12`, the Potency [5] is reported as inconclusive: 0.15 µM [rising, partial curve, poor fit].

For `CCOC(=O)CC(C)O` (configuration not stated), the Potency [5] was “inactive”.

For `CCCC(=O)c1ccccc1`, the Potency [5] was “inactive”.

For `COc1ccc2c(c1)C(=O)N(CCc1ccc(S(=O)(=O)NC(=O)NC3CCCCC3)cc1)C(=O)C2(C)C`, the Potency [1] was inconclusive: 23.9 µM [rising, partial curve, poor fit] and the Potency [3] was “inactive”.

For `CC1CCC(C(C)C)C(O)C1` (configuration not stated), the activity, negative = inhibition [1] was inconclusive: 23.3% and the Potency [3] was inconclusive: 62.7 µM [inhibitor] and inconclusive: 79.6 µM [inhibitor, partial curve].

With `C=C(C)C(=O)OCC` the Potency [1] was inconclusive: 0.513 µM [rising, single point], the Potency [2] was inconclusive: 3.32 µM [inhibitor, single point] and the Potency [4] was “inactive”.

With `O=S(=O)(O)c1ccc2ccccc2c1` the activity, negative = inhibition [1] was inconclusive: -17.7%, the Potency [6] was “inactive” and the Potency [3] was “inactive”.
